# Experimental data: the supplement of paper PMC10037445
# Whole data set: some 2,900 compounds, median “NF-kB SEAP reporter activity, fold change vs agonist alone” near 0.99, cut for the highest 2% near 2.6. This is one part of the list.
# Columns and labels:
# RAW-Dual [1] = assay: NF-kB SEAP reporter activity, fold change vs agonist alone; cytotoxicity flag (confluency mask): not cytotoxic; higher = enhanced NF-kB activity
# Outline: (§1)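 Reporter activity is given as fold change relative to agonist-alone wells. To measure it, 50 nL of library stock was pin-tooled onto RAW-Dual macrophages (50,000 cells/well, DMEM, 384-well plates), a PRR agonist followed 1 h later, and cells stayed at 37 °C, 5% CO2. Twenty hours on, supernatant was assayed for IRF (QuantiLuc luminescence) and NF-κB (QuantiBlue, 620 nm absorbance), and wells under 70% of agonist-control IncuCyte confluency in both mask sets were marked cytotoxic.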
# RAW-Dual [2] = assay: NF-kB SEAP reporter activity, fold change vs agonist alone; higher = enhanced NF-kB activity; conditions: cytotoxicity flag (confluency mask): not cytotoxic
# Outline: as §1
# [3] = agonist: ODN 1826 (TLR9) 0.5 ug/mL
# [4] = agonist: Pam2CSK4 (TLR2/6) 0.1 ug/mL
# [5] = agonist: Pam3CSK4 (TLR2/1) 0.1 ug/mL
# [6] = library stock concentration (final ~1000-fold dilution): 10 mM, agonist: MPLA (TLR4) […]
# [7] = library stock concentration (final ~1000-fold dilution): 10 mM, agonist: Imiquimod (TLR7) […]
smiles,measurement,setting,value
O=C(O)CCC(O)C(=O)O (stereo unspecified) (library stock concentration (final ~1000-fold dilution): 10 mM water),NF-kB SEAP reporter activity,RAW-Dual [1]; agonist: LPS (TLR4) 0.1 ug/mL,1.12
same,NF-kB SEAP reporter activity,RAW-Dual [1]; [3],1.15
same,NF-kB SEAP reporter activity,RAW-Dual [1]; [4],1.16
same,NF-kB SEAP reporter activity,RAW-Dual [1]; [5],1
O=C(O)CCC(O)C(=O)O (stereo unspecified),NF-kB SEAP reporter activity,"RAW-Dual [2]; library stock concentration (final ~1000-fold dilution): 10 mM water, agonist: Imiquimod (TLR7) […]",0.954
same,NF-kB SEAP reporter activity,"RAW-Dual [2]; library stock concentration (final ~1000-fold dilution): 10 mM water, agonist: MPLA (TLR4) […]",1.03
CC1=C(C(=O)OCCN(Cc2ccccc2)c2ccccc2)C(c2cccc([N+](=O)[O-])c2)C(P2(=O)OCC(C)(C)CO2)=C(C)N1 (stereo unspecified),NF-kB SEAP reporter activity,RAW-Dual [2]; [6],0.694
CC1=C(C(=O)OCCN(Cc2ccccc2)c2ccccc2)C(c2cccc([N+](=O)[O-])c2)C(P2(=O)OCC(C)(C)CO2)=C(C)N1 (stereo unspecified) (library stock concentration (final ~1000-fold dilution): 10 mM),NF-kB SEAP reporter activity,RAW-Dual [1]; agonist: LPS (TLR4) 0.1 ug/mL,0.716
same,NF-kB SEAP reporter activity,RAW-Dual [1]; [3],0.512
same,NF-kB SEAP reporter activity,RAW-Dual [1]; [4],0.346
same,NF-kB SEAP reporter activity,RAW-Dual [1]; [5],0.213
CCCNS(=O)(=O)Nc1ncnc(OCCOc2ncc(Br)cn2)c1-c1ccc(Br)cc1 (library stock concentration (final ~1000-fold dilution): 10 mM),NF-kB SEAP reporter activity,RAW-Dual [1]; agonist: LPS (TLR4) 0.1 ug/mL,1.37
same,NF-kB SEAP reporter activity,RAW-Dual [1]; [3],0.935
same,NF-kB SEAP reporter activity,RAW-Dual [1]; [4],0.789
same,NF-kB SEAP reporter activity,RAW-Dual [1]; [5],0.859
CCCNS(=O)(=O)Nc1ncnc(OCCOc2ncc(Br)cn2)c1-c1ccc(Br)cc1,NF-kB SEAP reporter activity,RAW-Dual [2]; [7],0.928
same,NF-kB SEAP reporter activity,RAW-Dual [2]; [6],1.03
CCC(C)(Nc1ccnc(-c2c[nH]c3ncccc23)n1)C(=O)NCC(F)(F)F (stereo unspecified),NF-kB SEAP reporter activity,RAW-Dual [2]; [7],1.14
same,NF-kB SEAP reporter activity,RAW-Dual [2]; [6],1.13
CCC(C)(Nc1ccnc(-c2c[nH]c3ncccc23)n1)C(=O)NCC(F)(F)F (stereo unspecified) (library stock concentration (final ~1000-fold dilution): 10 mM),NF-kB SEAP reporter activity,RAW-Dual [1]; agonist: LPS (TLR4) 0.1 ug/mL,0.766
same,NF-kB SEAP reporter activity,RAW-Dual [1]; [3],0.885
same,NF-kB SEAP reporter activity,RAW-Dual [1]; [4],1.21
same,NF-kB SEAP reporter activity,RAW-Dual [1]; [5],2.06
CCOC(=O)CCNc1cc(N2CCc3ccccc3CC2)nc(-c2ccccn2)n1.Cl,NF-kB SEAP reporter activity,RAW-Dual [2]; [7],0.922
same,NF-kB SEAP reporter activity,RAW-Dual [2]; [6],0.949
CCOC(=O)CCNc1cc(N2CCc3ccccc3CC2)nc(-c2ccccn2)n1.Cl (library stock concentration (final ~1000-fold dilution): 10 mM),NF-kB SEAP reporter activity,RAW-Dual [1]; agonist: LPS (TLR4) 0.1 ug/mL,1.02
same,NF-kB SEAP reporter activity,RAW-Dual [1]; [3],0.883
same,NF-kB SEAP reporter activity,RAW-Dual [1]; [4],0.943
same,NF-kB SEAP reporter activity,RAW-Dual [1]; [5],0.66
COC(=O)c1c2c(c3ccccc3c1O)OC(C)(C)C=C2 (library stock concentration (final ~1000-fold dilution): 10 mM),NF-kB SEAP reporter activity,RAW-Dual [1]; agonist: LPS (TLR4) 0.1 ug/mL,1.05
same,NF-kB SEAP reporter activity,RAW-Dual [1]; [3],0.712
same,NF-kB SEAP reporter activity,RAW-Dual [1]; [4],0.77
same,NF-kB SEAP reporter activity,RAW-Dual [1]; [5],0.94
COC(=O)c1c2c(c3ccccc3c1O)OC(C)(C)C=C2,NF-kB SEAP reporter activity,RAW-Dual [2]; [7],0.736
same,NF-kB SEAP reporter activity,RAW-Dual [2]; [6],1.01
CCCCN1CCCCC1C(=O)Nc1c(C)cccc1C.Cl (stereo unspecified),NF-kB SEAP reporter activity,RAW-Dual [2]; [7],0.94
same,NF-kB SEAP reporter activity,RAW-Dual [2]; [6],1.06
CCCCN1CCCCC1C(=O)Nc1c(C)cccc1C.Cl (stereo unspecified) (library stock concentration (final ~1000-fold dilution): 10 mM),NF-kB SEAP reporter activity,RAW-Dual [1]; agonist: LPS (TLR4) 0.1 ug/mL,1.36
same,NF-kB SEAP reporter activity,RAW-Dual [1]; [3],0.951
same,NF-kB SEAP reporter activity,RAW-Dual [1]; [4],0.981
same,NF-kB SEAP reporter activity,RAW-Dual [1]; [5],1.04
COc1ccc(/C=C/C(=O)C2(C(=O)/C=C/c3ccc(OC)c(OC)c3)CCCCC2)cc1OC (library stock concentration (final ~1000-fold dilution): 10 mM),NF-kB SEAP reporter activity,RAW-Dual [1]; agonist: LPS (TLR4) 0.1 ug/mL,0.367
same,NF-kB SEAP reporter activity,RAW-Dual [1]; [3],1.21
same,NF-kB SEAP reporter activity,RAW-Dual [1]; [4],0.228
same,NF-kB SEAP reporter activity,RAW-Dual [1]; [5],0.208
COc1ccc(/C=C/C(=O)C2(C(=O)/C=C/c3ccc(OC)c(OC)c3)CCCCC2)cc1OC,NF-kB SEAP reporter activity,RAW-Dual [2]; [7],0.45
same,NF-kB SEAP reporter activity,RAW-Dual [2]; [6],0.581
Cn1c(=O)c2c(ncn2CC(O)CO)n(C)c1=O (stereo unspecified) (library stock concentration (final ~1000-fold dilution): 10 mM),NF-kB SEAP reporter activity,RAW-Dual [1]; agonist: LPS (TLR4) 0.1 ug/mL,1.2
same,NF-kB SEAP reporter activity,RAW-Dual [1]; [3],1.15
same,NF-kB SEAP reporter activity,RAW-Dual [1]; [4],1.03
same,NF-kB SEAP reporter activity,RAW-Dual [1]; [5],1.12
